Experimental findings from article PMC12420274 are described below.

The chains behind the UniProt entries cited, without tags or fusion partners. Residues count along the entry.
UniProt P12314, residues 16-374: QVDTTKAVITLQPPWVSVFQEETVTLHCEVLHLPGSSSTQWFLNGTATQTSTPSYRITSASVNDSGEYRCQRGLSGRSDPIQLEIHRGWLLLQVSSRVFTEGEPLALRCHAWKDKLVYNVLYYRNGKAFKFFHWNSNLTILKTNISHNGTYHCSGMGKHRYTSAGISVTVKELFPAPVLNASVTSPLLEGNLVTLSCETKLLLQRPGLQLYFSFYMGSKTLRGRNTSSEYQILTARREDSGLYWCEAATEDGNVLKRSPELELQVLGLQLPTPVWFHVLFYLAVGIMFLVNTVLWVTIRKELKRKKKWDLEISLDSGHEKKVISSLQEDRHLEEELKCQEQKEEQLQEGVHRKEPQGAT
UniProt P12318, residues 34-317: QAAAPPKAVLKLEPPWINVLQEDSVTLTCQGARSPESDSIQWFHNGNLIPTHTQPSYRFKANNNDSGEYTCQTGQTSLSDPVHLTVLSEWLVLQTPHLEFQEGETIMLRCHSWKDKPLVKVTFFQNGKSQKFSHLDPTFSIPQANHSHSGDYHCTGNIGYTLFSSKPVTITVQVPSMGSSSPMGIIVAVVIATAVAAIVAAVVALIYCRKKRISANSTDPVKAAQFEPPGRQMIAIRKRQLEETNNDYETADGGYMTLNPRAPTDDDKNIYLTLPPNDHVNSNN
UniProt P31994, residues 43-310: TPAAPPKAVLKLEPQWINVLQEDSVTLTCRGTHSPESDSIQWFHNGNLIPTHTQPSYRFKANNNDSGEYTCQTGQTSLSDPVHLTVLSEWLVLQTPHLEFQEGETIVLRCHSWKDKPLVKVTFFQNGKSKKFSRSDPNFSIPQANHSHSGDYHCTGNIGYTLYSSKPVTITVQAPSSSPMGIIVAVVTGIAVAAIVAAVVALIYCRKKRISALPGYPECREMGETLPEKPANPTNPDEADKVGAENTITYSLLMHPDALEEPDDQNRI
UniProt P25911: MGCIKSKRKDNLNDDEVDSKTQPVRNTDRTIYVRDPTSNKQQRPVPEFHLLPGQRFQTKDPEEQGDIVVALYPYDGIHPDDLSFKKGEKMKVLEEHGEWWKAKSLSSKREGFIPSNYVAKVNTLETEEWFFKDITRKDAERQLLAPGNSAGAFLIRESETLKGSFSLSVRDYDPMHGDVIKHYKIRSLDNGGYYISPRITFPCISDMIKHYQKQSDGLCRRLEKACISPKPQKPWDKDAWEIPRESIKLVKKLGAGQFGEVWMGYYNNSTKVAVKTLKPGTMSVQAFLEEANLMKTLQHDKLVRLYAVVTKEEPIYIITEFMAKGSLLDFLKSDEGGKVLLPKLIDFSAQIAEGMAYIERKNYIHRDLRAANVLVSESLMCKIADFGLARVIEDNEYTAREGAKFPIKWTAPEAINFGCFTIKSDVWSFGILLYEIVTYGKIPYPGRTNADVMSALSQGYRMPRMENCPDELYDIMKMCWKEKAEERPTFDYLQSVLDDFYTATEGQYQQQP

Positions count from the first letter of the chain named. Read-outs that look alike come from different tables or passages of the source. These are yes or no findings as the source states them, for the method shown. Binding seen in cells or lysates may run through a third protein. Some entries that bind do so weakly or less than the wild type. For part of these data: Tags and fused reporters may be left off the sequences shown.

For assay [1], the target named is FcαRI (CD89) Gly^248 variant with the transmembrane Arg^209Leu mutation (FcRγ-pairing-disabled) (human) (UniProt P24071). The assay can be described thus: co-IP; FcαRI immunoprecipitated with A59 F(ab')2 Sepharose beads from P388D1 cells stably expressing FcαRI Ser248 or Gly248 with or without Arg209Leu; immunoblot for Sab (mAb 2B5.1), Lyn, FcRγ. (Immunoblotting shows a protein as a band on a membrane.)

Assay [2] addresses FcαRI (CD89) Ser^248 variant with the transmembrane Arg^209Leu mutation (FcRγ-pairing-disabled) (human) (UniProt P24071). The description is as above.
Assay [3] addresses FcαRI (CD89) Gly^248 variant, FcRγ-pairing-enabled (Arg^209) (human) (UniProt P24071). The description is as above.
In assay [4] the target is T1, His6-tagged human Sab expressed in COS7 cells (human) (UniProt O60239).
T1 sequence: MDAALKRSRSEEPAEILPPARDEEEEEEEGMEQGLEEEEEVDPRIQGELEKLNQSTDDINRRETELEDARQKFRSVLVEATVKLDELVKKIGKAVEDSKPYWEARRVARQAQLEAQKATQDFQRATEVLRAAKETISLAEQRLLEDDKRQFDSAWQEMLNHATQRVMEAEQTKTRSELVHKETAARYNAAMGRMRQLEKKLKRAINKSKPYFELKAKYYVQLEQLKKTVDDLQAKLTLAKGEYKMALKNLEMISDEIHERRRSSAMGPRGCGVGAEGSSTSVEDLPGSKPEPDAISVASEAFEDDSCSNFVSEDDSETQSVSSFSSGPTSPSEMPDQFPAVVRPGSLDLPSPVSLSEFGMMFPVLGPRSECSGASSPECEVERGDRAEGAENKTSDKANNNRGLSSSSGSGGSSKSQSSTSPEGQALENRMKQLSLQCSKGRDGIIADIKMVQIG
The assay can be described thus: pull-down; lysates of COS7 cells co-expressing His6-Sab and FcαRI Ser248 or Gly248 passed over a Ni-NTA column; wash 20 mM imidazole, elution 250 mM imidazole; immunoblot for FcαRI in input, flow-through and bound fractions.

Assay [5] has as its target T2, GST-CYT-Ser^248 S246A, phosphorylated with activated CK1δ (human) (UniProt P24071).
T2 sequence (chain, phosphorylated with activated CK1δ): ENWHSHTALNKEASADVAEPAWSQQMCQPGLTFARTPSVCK
As to the kind of experiment: pull-down; immobilised GST-FcαRI CYT variants and point mutants, with or without treatment with PP1-activated CK1δ, incubated with lysate of U937 cells expressing His6-Sab (Lyn endogenous); immunoblot for His6-Sab and Lyn (the methods describe 10 µg purified His-tagged Sab, 30°C, 60 min, on glutathione Sepharose-4B); only the target purified.

Assay [6] concerns the target T3, GST-FcαRI cytoplasmic domain fusion protein, Ser^248, phosphorylated with PP1-activated CK1δ (human) (UniProt P24071).
T3 sequence (chain, phosphoserine at 248 (phosphorylated in vitro by PP1-activated CK1δ)): T2 sequence (chain, phosphorylated with activated CK1δ) with A21S
The assay is described as above.

Assay [7] addresses FcγRI (CD64), endogenous in U937 (human (endogenous in U937)) (UniProt P12314). As to the kind of experiment: co-IP; FcαRI, FcγRI, FcγRIIb and FcγRIIa immunoprecipitated from U937 cells with receptor-specific antibody fragments; immunoblot for Sab (E-18 and 2B5.1).
Assay [8] has as its target FcγRIIa (CD32A), endogenous in U937 (human (endogenous in U937)) (UniProt P12318). The assay is described as above.
Assay [9] has as its target FcγRIIb (CD32B), endogenous in U937 (human (endogenous in U937)) (UniProt P31994). The assay is described as above.
Assay [10] has as its target FcαRI Ser^248, endogenous in human myeloid cells (human (endogenous in U937, THP-1, HL-60 and primary leukocytes)) (UniProt P24071). The assay can be described thus: co-IP; endogenous proteins; U937, THP-1, HL-60, neutrophils and mononuclear cells opsonised with A59 F(ab')2 and FcαRI precipitated with goat anti-mouse IgG beads (intracellular pool of neutrophils with F(ab')2 A59 beads); immunoblot for Sab.

Assay [11] concerns the target FcαRI (CD89) Ser^248 variant, FcRγ-pairing-enabled (Arg^209) (human) (UniProt P24071). The assay can be described thus: co-IP; FcαRI immunoprecipitated with A59 F(ab')2 Sepharose beads from P388D1 cells stably expressing FcαRI Ser248 or Gly248 with or without Arg209Leu; immunoblot for Sab (mAb 2B5.1), Lyn, FcRγ.
The target in assay [12] is FcαRI (CD89) Gly^248 variant with the transmembrane Arg^209Leu mutation (FcRγ-pairing-disabled) (human) (UniProt P24071). The assay is described as above. This is another data set of the same source.
For assay [13], the target named is FcαRI (CD89) Ser^248 variant with the transmembrane Arg^209Leu mutation (FcRγ-pairing-disabled) (human) (UniProt P24071). The description is as above. The source holds these as a separate data set.
The target of assay [14] is FcαRI (CD89) Gly^248 variant, FcRγ-pairing-enabled (Arg^209) (human) (UniProt P24071). Described as above. The source holds these as a separate data set.

Take “Lyn kinase (murine, endogenous in P388D1) (from UniProt P25911 1-512) (enzyme)”: the binding entry in assay [1], in assay [2] and in assay [3] was “binds” each time.

In the case of “FcαRI Ser^248 co-expressed in COS7 cells (from UniProt P24071 22-287) (receptor)”, the binding result in assay [4] is given as “binds”.

As to “FcαRI Gly^248 co-expressed in COS7 cells (from UniProt P24071 22-287) (receptor)”, in assay [4], the binding entry is on record as “no binding”.

B1: His6-tagged human Sab stably expressed in U937 cells (protein, UniProt O60239 1-455)
chain: T1 sequence
Turning to B1, the binding entry in assay [5] and in [6] was “binds” throughout.

B2: Sab (SH3BP5), endogenous in human myeloid cells (protein, UniProt O60239 1-455)
chain: T1 sequence
Regarding B2, the binding result in assay [7] is reported as “no binding”; in [8] it was “no binding”; in [9], “no binding”; in [10], “binds”.

B3: murine Sab (SH3BP5) (protein, UniProt Q9Z131 1-463)
chain: MDTALKRSRSDEPAELPPPAREVEEKEEEEERMEQGLEEEEEEVDPRIQGELEKLNQSTDDINRRETELEDARQKFRSVLVEATVKLDELAKKIGKAVEDSKPYWEARRVARQAQLEAQKATQDFQRATEVLRAAKETISLAEQRLLEDDKRQFDSAWQEMLNHATQRVMEAEQTKTRSELVHKETAARYNAAMGRMRQLEKKLKRAINKSKPYFELKAKYYVQLEQLKKTVDDLQAKLALAKGEYKAALKSLERISDEIHERRRSNAMGPRGCGVGAEGSIASVENLPVSKPEPDAISVASEAFEDDNCSNLVSEDDSETQSVSSFSSGPTSPSEMPDQFPAVARPGSLDLPSPVSLSEFGMMFPILGPRSECSGASSPECEVERGDRAEGAENKMSDKANNNRVLGSTNGGSGRSRSQSSTSLESQALETRMKQLSLQCSKGRDGIIADIKMIFIFYTFLQ
On to B3, for which the binding entry in assay [11] is listed as “binds”; in assay [12], “no binding”; in assay [13], “binds”; in [14] it was “no binding”.
